# In PubChem BioAssay (NCATS):
# Several values for one entry are separate records, joined by “and”; a condition that tells them apart may be missing. Equal values may be shown once. This list was built around the results that the source calls inconclusive (neither active nor inactive); the mix of calls is not that of the screen. A potency beside an inconclusive call is a rough fit, not a confirmed value. For part of these data: “Side channel” marks fits to a control or component signal instead of the main read-out. Activity calls are given as the source filed them. Unless noted, the call rests on the fitted dose curve; in most records, active means well fitted curve in the direction sought with a large enough effect; inconclusive means small, poorly fitted or top-dose-only effect, or another doubt; inactive means no such curve, though single readings can be large; an effect the other way counts as inactive or inconclusive.
# Tested on: not listed separately
# Experiment: Cell Viability - LYMP2-022 (AID 987); further: nearly all actives have a fitted effect of over 55% in size;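 on viability change, negative = cytotoxic: 0% = DMSO alone and full effect = tetraoctylammonium bromide at 92 µM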
# Settings: LYMP2-022 lymphoblastoid cell viability; viability change, negative = cytotoxic: at 92.2 µM (top of the series)
# Method in brief: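 Human lymphoblastoid cells, 2500/well, preincubated 5 hr at 37 C, then exposed to compounds over a concentration range for 24 hr at 37 C in complete medium. Viability read as intracellular ATP by CellTiter-Glo luminescence after 30 min at room temperature; AC50 from Hill fits.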
# Potency means the concentration at half of the fitted maximal effect; tags describe the fitted curve by direction and shape or compound fluorescence and quenching.
Compound,Potency,"viability change, negative = cytotoxic"
N#CC(Br)Br,"inconclusive: 39.8 µM [cytotoxic, partial curve, poor fit]",–
ClCC1CO1 (stereo not drawn),"inconclusive: 79.4 µM [cytotoxic, single point]",–
O=[N+]([O-])c1ccccc1CCl,"inconclusive: 50.1 µM [cytotoxic, partial curve, poor fit]",–
c1ccc(Nc2ccc(Nc3ccccc3)cc2)cc1,"inconclusive: 31.6 µM [cytotoxic, partial curve, poor fit]",–
C(CCOCC1CO1)COCC1CO1 (stereo not drawn),"inconclusive: 50.1 µM [cytotoxic, partial curve, poor fit]",–
c1ccc2cc3c(cc2c1)-c1cccc2cccc-3c12,–,inactive: -11.9%
O=[N+]([O-])c1cc(C(F)(F)F)cc([N+](=O)[O-])c1Cl,active: 31.6 µM,–

# Tested on: not listed separately
# Experiment: Cell Viability - LYMP2-024 (AID 988); further: nearly all actives have a fitted effect of over 60% in size
# Settings: LYMP2-024 lymphoblastoid cell viability; series mostly up to 92.2 µM; activity change, negative = cytotoxicity: at the top concentration
# Method in brief: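 Human lymphoblastoid cells (2500/well) in complete medium were preincubated 5 hr at 37 C, then exposed to compounds for 24 hr at 37 C. Intracellular ATP was read by CellTiter-Glo luminescence; AC50 from Hill-equation fits of concentration-response data.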
row,Compound,Potency
1,O=C(O)C(Br)CBr (stereo not drawn),"inconclusive: 39.8 µM [cytotoxic, partial curve]"
2,N#CC(Br)Br,"inconclusive: 50.1 µM [cytotoxic, partial curve, poor fit]"
3,ClCC1CO1 (stereo not drawn),"inconclusive: 79.4 µM [cytotoxic, single point]"
4,c1ccc(Nc2ccc(Nc3ccccc3)cc2)cc1,"inconclusive: 79.4 µM [cytotoxic, partial curve, poor fit]"
5,C(CCOCC1CO1)COCC1CO1 (stereo not drawn),"inconclusive: 63.1 µM [cytotoxic, partial curve, poor fit]"

# Target: Ubiquitin carboxyl-terminal hydrolase 1 (Homo sapiens) (UniProt O94782)
# Experiment: Inhibitors of USP1/UAF1: Pilot qHTS (AID 504865);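 further: rhodamine fluorescence freed from ubiquitin-rhodamine substrate followed over time; nearly all actives have a fitted effect of over 35% in size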; on activity change, negative = inhibition: top concentration of the series differs between compounds; on the % scale 0 is the no-effect control and ±100 the full control effect
# Settings: purified USP1/UAF1, Ub-rhodamine cleavage fluorescence; series mostly up to 114 µM; activity change, negative = inhibition: at the top concentration
# Method in brief: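 USP1/UAF1 complex (1nM) preincubated with compound 15 min at room temperature, then Ub-Rho substrate (150nM final) added. Fluorescence read kinetically at 480/540 nm, 6 reads every 60 seconds. Buffer: 50mM HEPES pH 7.8, 0.5mM EDTA, 0.1 mg/ml BSA, 1mM TCEP, 0.01% Tween-20.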
# UniProt O94782, sequence (O94782 whole entry, looked up): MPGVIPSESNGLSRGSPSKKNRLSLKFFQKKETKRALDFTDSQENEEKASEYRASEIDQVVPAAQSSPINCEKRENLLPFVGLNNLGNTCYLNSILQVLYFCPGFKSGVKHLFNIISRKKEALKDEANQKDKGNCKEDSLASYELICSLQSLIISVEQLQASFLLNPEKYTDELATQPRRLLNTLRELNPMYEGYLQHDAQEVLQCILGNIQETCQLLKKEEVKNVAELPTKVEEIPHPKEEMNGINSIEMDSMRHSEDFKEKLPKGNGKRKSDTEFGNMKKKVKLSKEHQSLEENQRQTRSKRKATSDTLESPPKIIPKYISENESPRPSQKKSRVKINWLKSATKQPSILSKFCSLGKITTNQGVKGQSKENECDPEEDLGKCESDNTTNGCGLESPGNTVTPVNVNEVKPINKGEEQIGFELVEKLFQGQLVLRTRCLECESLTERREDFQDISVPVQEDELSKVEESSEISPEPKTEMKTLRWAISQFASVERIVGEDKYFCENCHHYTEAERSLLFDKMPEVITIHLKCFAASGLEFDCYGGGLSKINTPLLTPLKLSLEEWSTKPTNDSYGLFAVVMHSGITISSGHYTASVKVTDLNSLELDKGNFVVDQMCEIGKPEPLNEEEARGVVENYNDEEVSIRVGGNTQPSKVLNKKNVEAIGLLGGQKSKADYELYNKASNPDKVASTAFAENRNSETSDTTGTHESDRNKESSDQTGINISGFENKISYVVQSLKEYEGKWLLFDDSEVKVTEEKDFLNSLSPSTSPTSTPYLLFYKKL
Compound,Potency,"activity change, negative = inhibition"
CCCCCCCCCCCCSCCOCCO,"inconclusive: 56.2 µM [inhibitor, partial curve]",–
COc1ccc2c3c1O[C@H]1[C@@H](O)C=C[C@H]4C(C2)NCCC341 (stereo partly drawn),–,inactive: -5.5%
ClCC1CO1 (stereo not drawn),–,inactive: -8.54%
CC1(C)N(O)C(c2ccc(C(=O)O)cc2)=[N+]([O-])C1(C)C,"inconclusive: 79.4 µM [inhibitor, partial curve, poor fit]",–
CC(=O)O[C@H]1CC[C@@]2(C)C(=CC[C@@H]3[C@H]2CC[C@]2(C)C(=O)CC[C@H]32)C1,"inconclusive: 3.55 µM [inhibitor, full curve, poor fit]",–

# Target: Estrogen receptor (Homo sapiens) (UniProt P03372)
# Experiment: qHTS assay for small molecule antagonists of estrogen receptor alpha signaling (AID 588513; active means well fitted curve in the direction sought with a large enough effect in the signal ratio, with a control signal flat, not every such curve was filed as active; inconclusive means small, poorly fitted or top-dose-only effect, or effect the other way, or a change in a side signal; inactive means no such curve, though single readings can be large or run the other way; the % refers to the signal ratio; on activity, negative = inhibition: on the % scale 0 is the no-effect control and ±100 the full control effect)
# Settings: ER-alpha-UAS-bla HEK293, beta-lactamase ratio, antagonist mode; activity, negative = inhibition: at 76.9 µM (top of the series)
# Method in brief: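 ER-alpha-UAS-bla GripTite HEK 293 cells in medium with 2% charcoal/dextran-treated FBS were preincubated 4 h at 37 C, dosed with compound (1:2 titration), stimulated with 0.5nM 17-beta-estradiol for 18 h, then read by CCF4 beta-lactamase fluorescence.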
# UniProt P03372, sequence (P03372 whole entry, looked up): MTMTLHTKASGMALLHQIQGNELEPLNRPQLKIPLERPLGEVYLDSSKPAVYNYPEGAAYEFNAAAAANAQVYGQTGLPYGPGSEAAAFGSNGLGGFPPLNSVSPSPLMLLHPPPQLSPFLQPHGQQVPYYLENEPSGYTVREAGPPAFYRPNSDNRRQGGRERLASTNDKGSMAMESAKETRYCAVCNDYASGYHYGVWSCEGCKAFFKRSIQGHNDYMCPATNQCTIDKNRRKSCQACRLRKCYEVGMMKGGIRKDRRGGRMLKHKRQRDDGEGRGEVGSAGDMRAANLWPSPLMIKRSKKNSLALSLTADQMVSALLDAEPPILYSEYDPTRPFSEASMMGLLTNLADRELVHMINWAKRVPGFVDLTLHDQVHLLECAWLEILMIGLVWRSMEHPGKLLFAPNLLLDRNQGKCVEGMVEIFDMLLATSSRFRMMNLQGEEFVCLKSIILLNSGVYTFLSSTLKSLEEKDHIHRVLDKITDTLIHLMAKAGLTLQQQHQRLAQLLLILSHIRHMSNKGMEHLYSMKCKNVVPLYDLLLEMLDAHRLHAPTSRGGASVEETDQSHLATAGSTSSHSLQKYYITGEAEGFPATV
Compound,"activity, negative = inhibition",Potency
ClCC1CO1 (stereo not drawn),inactive: -5.1%,–
c1ccc(Nc2ccc(Nc3ccccc3)cc2)cc1,–,"inconclusive: 31.6 µM [falling, partial curve, poor fit]"
C(CCOCC1CO1)COCC1CO1 (stereo not drawn),inactive: 11%,–
c1ccc2cc3c(cc2c1)-c1cccc2cccc-3c12,inactive: 62.5%,–
[O]=[Cd],inactive: 0.904%,–

# Target: Glucocorticoid receptor (Homo sapiens) (UniProt P04150)
# Experiment: qHTS assay for small molecule agonists of glucocorticoid receptor signaling (AID 588532; active means well fitted curve in the direction sought with a large enough effect in the signal ratio, with a control signal flat; inconclusive means small, poorly fitted or top-dose-only effect, or a change in a side signal; inactive means no such curve, though single readings can be large or run the other way; the % refers to the signal ratio;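 on activation: 100% = dexamethasone at 0.1 µM and 0% = DMSO only wells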)
# Settings: HeLa MMTV-bla, beta-lactamase ratio, agonist, 18 h; activation: stronger effect = higher value, percent of dexamethasone control, DMSO zero
# Method in brief: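 MMTV-bla HeLa beta-lactamase reporter cells in 1% charcoal/dextran FBS medium, compounds up to 92 uM for 18 h at 37 C, CCF4 readout; normalized to 0.1 uM dexamethasone (100%), EC50 and efficacy from Hill fits.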
Compound,Potency,activation
Cc1cc(N=Nc2ccccc2C)ccc1N,"inconclusive: 1 µM [side channel, falling, full curve, poor fit]",–
c1ccc(Nc2ccc(Nc3ccccc3)cc2)cc1,"inconclusive: 10 µM [side channel, falling, full curve, poor fit]",–
c1ccc2cc3c(cc2c1)-c1cccc2cccc-3c12,active: 15.8 µM,–
CCOP(=S)(OCC)Oc1ccc([N+](=O)[O-])cc1,–,inactive: 1.36% and inactive: 0.403% and inactive: 5.24%

# Target: Glucocorticoid receptor (Homo sapiens) (UniProt P04150)
# Experiment: qHTS assay for small molecule antagonists of glucocorticoid receptor signaling (AID 588533; active means well fitted inhibition curve with a large enough effect in the signal ratio, with a control signal flat, not every such curve was filed as active; inconclusive means small, poorly fitted or top-dose-only effect, or effect the other way, or a change in a side signal; the % refers to the signal ratio;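 further: cells stimulated with 2 nM dexamethasone as agonist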; on activity change, negative = inhibition: on the % scale 0 is the no-effect control and ±100 the full control effect)
# Settings: HeLa MMTV-bla, GRE beta-lactamase ratio, antagonist mode, 18 h; activity change, negative = inhibition: at 76.8 µM (top of the series)
Compound,"activity change, negative = inhibition",Potency
O=C(O)C(Br)CBr (stereo not drawn),inconclusive: -34.1%,–
N#CC(Br)Br,inconclusive: -26.1%,–
Cc1cc(N=Nc2ccccc2C)ccc1N,–,"inconclusive: 39.8 µM [inhibitor, partial curve, poor fit]"
c1ccc(Nc2ccc(Nc3ccccc3)cc2)cc1,–,"inconclusive: 39.8 µM [activator, partial curve, poor fit]"
C(CCOCC1CO1)COCC1CO1 (stereo not drawn),inactive: 1.91%,–

# Target: Peroxisome proliferator-activated receptor delta (Homo sapiens) (UniProt Q03181)
# Experiment: qHTS assay for small molecule antagonists of peroxisome proliferator-activated receptor delta signaling (AID 588535; active means well fitted inhibition curve with a large enough effect in the signal ratio, with a control signal flat, not every such curve was filed as active; inconclusive means small, poorly fitted or top-dose-only effect, or effect the other way, or a change in a side signal; inactive means no such curve, though single readings can be large or run the other way; the % refers to the signal ratio)
# Settings: HEK293T PPARd-UAS-bla, beta-lactamase FRET ratio, 18 h; activity change, negative = inhibition: at 76.7 µM (top of the series)
# Method in brief: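 Cells were seeded at 4000 per well in assay medium containing 2% charcoal/dextran FBS and held 5 hrs at 37 C. Compounds were then added for 18 hrs. CCF4 substrate was applied for 2 hrs at room temperature before fluorescence reading.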
# UniProt Q03181, sequence (Q03181 whole entry, looked up): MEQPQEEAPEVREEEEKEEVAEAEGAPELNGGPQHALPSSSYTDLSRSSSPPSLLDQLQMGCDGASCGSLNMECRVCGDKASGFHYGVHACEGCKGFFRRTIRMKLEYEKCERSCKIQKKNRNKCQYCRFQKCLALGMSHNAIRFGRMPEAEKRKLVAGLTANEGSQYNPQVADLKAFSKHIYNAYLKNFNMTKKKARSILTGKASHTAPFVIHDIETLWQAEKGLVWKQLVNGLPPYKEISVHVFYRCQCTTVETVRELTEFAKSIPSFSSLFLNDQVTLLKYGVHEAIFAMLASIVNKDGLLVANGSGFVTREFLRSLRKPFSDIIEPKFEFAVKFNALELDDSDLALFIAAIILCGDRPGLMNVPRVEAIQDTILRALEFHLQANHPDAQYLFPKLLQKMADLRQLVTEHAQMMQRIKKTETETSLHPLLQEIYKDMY
Compound,"activity change, negative = inhibition",Potency
ClCc1ccccc1,inactive: -20.6%,–
c1ccc2c(c1)-c1cccc3cccc-2c13,–,"inconclusive: 50.1 µM [fluorescent, side channel, partial curve, poor fit]"
ClCC1CO1 (stereo not drawn),inconclusive: 35.5%,–
Nc1ccc([N+](=O)[O-])cc1N,inconclusive: -50.9%,–
Cc1cc(N=Nc2ccccc2C)ccc1N,inconclusive: -45.5%,–
c1ccc2cc3c(cc2c1)-c1cccc2cccc-3c12,–,"inconclusive: 15.8 µM [fluorescent, side channel, partial curve]"
CCOP(=S)(OCC)Oc1ccc([N+](=O)[O-])cc1,–,"inconclusive: 22.4 µM [activator, partial curve, poor fit]"
[O]=[Cd],inconclusive: -31.4%,–

# Target: Peroxisome proliferator-activated receptor gamma (Homo sapiens) (UniProt P37231)
# Experiment: qHTS assay for small molecule agonists of peroxisome proliferator-activated receptor gamma signaling (AID 588536; active means well fitted curve in the direction sought with a large enough effect in the signal ratio, with a control signal flat, not every such curve was filed as active; inconclusive means small, poorly fitted or top-dose-only effect, or effect the other way, or a change in a side signal; inactive means no such curve, though single readings can be large or run the other way; the % refers to the signal ratio;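 on activation: 0% = DMSO basal wells and 100% = rosiglitazone at 2 µM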)
# Settings: HEK293 PPARg-UAS-bla, beta-lactamase ratio, 16 h; activation: at 76.7 µM (top of the series), percent of rosiglitazone response, DMSO as zero
# Method in brief: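 PPAR-gamma-UAS-bla HEK293 cells in medium with 1% charcoal/dextran-treated FBS were exposed to compounds for 16 h at 37 C. Beta-lactamase activity was read with CCF4 substrate (405 nm excitation, 460/530 nm emission).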
Compound,activation,Potency
ClCc1ccccc1,inactive: -0.14%,–
c1ccc2c(c1)-c1cccc3cccc-2c13,inconclusive: 8.5% and inconclusive: 20.2%,–
O=C(O)C(Br)CBr (stereo not drawn),inconclusive: 15.9%,–
Nc1ccc([N+](=O)[O-])cc1N,–,inactive
Nc1ccccc1C(=O)OCCc1ccccc1,inconclusive: -4.67%,–
Cc1cc(N=Nc2ccccc2C)ccc1N,inconclusive: -14.9%,–
c1ccc(Nc2ccc(Nc3ccccc3)cc2)cc1,inconclusive: -8.83%,–
c1ccc2cc3c(cc2c1)-c1cccc2cccc-3c12,–,"inconclusive: 4.47 µM [fluorescent, side channel, full curve] and inconclusive: 5.62 µM [activator, full curve]"
Brc1ccc(Oc2ccc(Br)cc2Br)c(Br)c1,–,"inconclusive: 35.5 µM [side channel, rising, partial curve, poor fit]"
